Laboratory results from ChEMBL document CHEMBL5308541, “MAIP: An Open-Source Tool to Enrich High-Throughput Screening Output and Identify Novel, Druglike Molecules with Antimalarial Activity” (ACS Med Chem Lett, 2023).
Hit rate of the full screen: of about 150,000 compounds, about 540 (0.36%) showed an effect of 50% or more. The list shows a part of the results.

These molecules were tested on Plasmodium falciparum (assay: Primary screen in NF54 nanoGlo assay, in single point, at 2uM, 72h; a lower Z score goes with more inhibition). Conditions: timepoint 72 hour.
Type: functional, Erythrocyte

In order of falling “% Inhibition” value:
1. Cc1cnc(NC2CC(=O)N3CCCCC23)nc1NC1CC(=O)N2CCCCC12 (centres undefined)  30%
2. CCc1cc(NCCc2nc3cc(F)ccc3[nH]2)nc(-c2ccccn2)n1  21%
3. Cc1cc(C)c(CN2C[C@H]3CNC[C@H]3C2)cc1CN1CCN(C)CC1  15%
4. CN(Cc1ccccc1)Cc1c(-c2ccccc2)nc2ccc(Cl)cc2c1O  6%
5. COCC[C@H]1CCCCN1C(=O)c1cccc(-c2ccc3[nH]nc(N)c3c2)c1  4%
6. FC(F)(F)c1csc(CNc2ncnc3ccccc23)n1  4%
7. CC(C)n1cc(CNc2c(-c3nc4ccccc4[nH]3)cnn2C)cn1  2%
8. COC(=O)c1ccc(F)c(S(=O)(=O)N[C@@H](CC(C)C)c2nc(-c3nc[nH]n3)no2)c1  1%
9. c1cnc(NCCNCc2c[nH]nc2-c2cc3ccccc3o2)nc1  0%
10. Cc1cc(C(=O)N[C@H](c2nc(-c3nc[nH]n3)no2)C(C)(C)C)c2ccccc2n1  -3%
11. Nc1nc(NCc2cc3ccc(F)cc3[nH]c2=O)cc(N2CCOCC2)n1  -6%
12. CNC(=O)[C@H]1CCN(Cc2cccc(C(=O)Nc3ccc4[nH]ncc4c3)c2)C1  -7%
13. Cc1cccc2c(N3CC[C@H](Oc4cccnc4N4CCCC4)C3)ncnc12  -7%
14. Cc1nc(C)c(C(=O)N(C)C2CN(c3cnccn3)C2)s1  -8%
15. CCc1cnc(CNc2ccc(F)c(S(N)(=O)=O)c2)s1  -10%
16. CCc1cc(N2CCC(NCc3cccc(N4CCCC4)c3)CC2)nc(C)n1  -10%
17. CN1CCN(Cc2ccc(C(=O)NCC3CCN(CC#N)CC3)cc2)CC1  -10%
18. Cc1noc(-c2ccc(NC(=O)N[C@@H]3COC4(CCCCC4)C3)cc2)n1  -11%
19. N#Cc1cc(NCc2cccc(C(N)=O)c2)nc2ccc(Cl)cc12  -12%
20. CCNc1ccnc(N[C@@H](C)CC(C)(C)c2ccccc2)n1  -12%
21. CC(C)c1ccc2c(c1)[C@H](NC(=O)Cc1c[nH]c3ncccc13)CCC2  -14%
22. Cn1c(=O)[nH]c2ncc(-c3cccc(C(=O)N4CCC(C(=O)NCCCN5CCCC5)CC4)c3)cc21  -16%

In order of falling Z score:
1. CC(C)c1ccc2c(c1)[C@H](NC(=O)Cc1c[nH]c3ncccc13)CCC2  2.78
2. CCNc1ccnc(N[C@@H](C)CC(C)(C)c2ccccc2)n1  2.67
3. Cn1c(=O)[nH]c2ncc(-c3cccc(C(=O)N4CCC(C(=O)NCCCN5CCCC5)CC4)c3)cc21  2.44
4. CCc1cc(N2CCC(NCc3cccc(N4CCCC4)c3)CC2)nc(C)n1  2.06
5. N#Cc1cc(NCc2cccc(C(N)=O)c2)nc2ccc(Cl)cc12  2.01
6. Cc1noc(-c2ccc(NC(=O)N[C@@H]3COC4(CCCCC4)C3)cc2)n1  1.83
7. CN1CCN(Cc2ccc(C(=O)NCC3CCN(CC#N)CC3)cc2)CC1  1.81
8. CCc1cnc(CNc2ccc(F)c(S(N)(=O)=O)c2)s1  1.55
9. Nc1nc(NCc2cc3ccc(F)cc3[nH]c2=O)cc(N2CCOCC2)n1  1.3
10. Cc1nc(C)c(C(=O)N(C)C2CN(c3cnccn3)C2)s1  1.26
11. CNC(=O)[C@H]1CCN(Cc2cccc(C(=O)Nc3ccc4[nH]ncc4c3)c2)C1  1.14
12. Cc1cccc2c(N3CC[C@H](Oc4cccnc4N4CCCC4)C3)ncnc12  1.14
13. Cc1cc(C(=O)N[C@H](c2nc(-c3nc[nH]n3)no2)C(C)(C)C)c2ccccc2n1  0.52
14. c1cnc(NCCNCc2c[nH]nc2-c2cc3ccccc3o2)nc1  -0.07
15. COC(=O)c1ccc(F)c(S(=O)(=O)N[C@@H](CC(C)C)c2nc(-c3nc[nH]n3)no2)c1  -0.13
16. CC(C)n1cc(CNc2c(-c3nc4ccccc4[nH]3)cnn2C)cn1  -0.38
17. COCC[C@H]1CCCCN1C(=O)c1cccc(-c2ccc3[nH]nc(N)c3c2)c1  -0.65
18. FC(F)(F)c1csc(CNc2ncnc3ccccc23)n1  -0.76
19. CN(Cc1ccccc1)Cc1c(-c2ccccc2)nc2ccc(Cl)cc2c1O  -1.24
20. Cc1cc(C)c(CN2C[C@H]3CNC[C@H]3C2)cc1CN1CCN(C)CC1  -2.98
21. CCc1cc(NCCc2nc3cc(F)ccc3[nH]2)nc(-c2ccccn2)n1  -4.45
22. Cc1cnc(NC2CC(=O)N3CCCCC23)nc1NC1CC(=O)N2CCCCC12 (centres undefined)  -5.22
